Assay results published in patent publication US20140082769A1 (VIB VZW, published 2014).

Target: biotin labeled peptide of CIpB ATPase of Staphylococcus epidermidis (b~[…])
Assay: PepBlot on BL21 cell lysate

B1: β-galactosidase (enzyme)
chain: not shown
notes: also called beta-Gal
Question: Does B1 bind?
Answer: no binding
